These are yes or no findings as the source states them, for the method shown. In cells and extracts the contact can be indirect. Some results given as binding are weak or reduced against the parent protein; the word gives no strength. Sequences can lack the tags named with a protein.
Tests used:
[1] = molecular target: T1, GST-JP45 fusion protein encompassing JP45 C-terminal domain (amino acid residues 149-332) (UniProt Q3MI48); assay: pull-down; as a1 but with 1 mM EGTA instead of CaCl2 (nanomolar calcium): 50 mM Tris-HCl pH 8.5, 1 mM DTT, 20 mM NaCl, 0.1% CHAPS; only the target purified
T1 sequence: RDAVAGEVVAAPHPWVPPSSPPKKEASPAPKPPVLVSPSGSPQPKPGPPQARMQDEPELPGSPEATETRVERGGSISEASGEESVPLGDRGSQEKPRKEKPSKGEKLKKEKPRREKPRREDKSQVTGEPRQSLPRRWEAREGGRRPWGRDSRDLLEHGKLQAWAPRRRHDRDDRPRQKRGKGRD

Sequences of proteins named here, by UniProt entry; tags and fusion partners are left off. Residues count along the entry.
UniProt O09165, residues 35-405: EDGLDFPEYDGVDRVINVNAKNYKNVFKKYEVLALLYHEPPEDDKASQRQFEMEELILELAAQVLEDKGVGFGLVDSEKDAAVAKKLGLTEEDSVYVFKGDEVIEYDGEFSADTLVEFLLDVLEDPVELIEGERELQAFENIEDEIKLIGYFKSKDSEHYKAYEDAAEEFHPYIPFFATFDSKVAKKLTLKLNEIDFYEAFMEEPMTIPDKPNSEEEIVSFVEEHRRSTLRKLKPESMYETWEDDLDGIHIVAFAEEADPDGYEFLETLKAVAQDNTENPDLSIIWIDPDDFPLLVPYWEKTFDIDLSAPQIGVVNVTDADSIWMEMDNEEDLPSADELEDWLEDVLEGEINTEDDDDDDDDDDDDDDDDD

[2] = molecular target: T1, GST-JP45 fusion protein encompassing JP45 C-terminal domain (amino acid residues 149-332); assay: pull-down; GST-JP45 C-terminal domain on beads with solubilised SR proteins in 130 mM KCl, 20 mM NaCl, at the highest Ca2+ of the series (1 mM for CASQ1 of 0.1, 0.5, 1 mM; 0.5 mM for CASQ2 of 0.05, 0.1, 0.5 mM); only the target purified
[3] = molecular target: T1, GST-JP45 fusion protein encompassing JP45 C-terminal domain (amino acid residues 149-332); assay: pull-down; GST fusion protein (or GST) on glutathione-Sepharose beads incubated with CHAPS-solubilised SR proteins; 50 mM Tris-HCl pH 8.5, 1 mM DTT, 20 mM NaCl, 0.1% CHAPS, 1 mM CaCl2; 2 h at 4 °C; immunoblot with anti-CASQ1 or anti-CASQ2; only the target purified
[4] = molecular target: T1, GST-JP45 fusion protein encompassing JP45 C-terminal domain (amino acid residues 149-332); assay: pull-down; GST-JP45 C-terminal domain on beads with solubilised SR proteins in 130 mM KCl, 20 mM NaCl, at 100 μM Ca2+; only the target purified
[5] = molecular target: T1, GST-JP45 fusion protein encompassing JP45 C-terminal domain (amino acid residues 149-332); assay: pull-down; as Fig. 6 panels A and B, but solubilisation and interaction with the GST-JP45 fusion protein in the presence of 1 M NaCl; only the target purified

With “calsequestrin 1 (CASQ1), skeletal isoform (from UniProt O09165 35-405)” the binding [1] was “binds weakly”, the binding [2] was “binds” and the binding [3] was “binds”. For the same molecule, the binding [4] was “binds weakly”.

B1: calsequestrin 2 (CASQ2), cardiac isoform (protein, UniProt O09161 20-415)
chain: EEGLNFPTYDGKDRVVSLSEKNLKQMLKRYDLLCLYYHEPVSSDKVSQKQFQLKEIVLELVAQVLEHKNIGFVMVDSRKEAKLAKRLGFSEEGSLYVLKGDRTIEFDGEFAADVLVEFLLDLIEDPVEIVNNKLEVQAFERIEDQTKLLGFFKNEDSEYYKAFQEAAEHFQPYIKFFATFDKAVAKKLSLKMNEVGFYEPFMDEPNVIPNKPYTEEELVEFVKEHQRPTLRRLRPEDMFETWEDDLNGIHIVAFAEKSDPDGYEFLEILKQVARDNTDNPDLSILWIDPDDFPLLVAYWEKTFKIDLFKPQIGVVNVTDADSIWMEIPDDDDLPTAEELEDWIEDVLSGKINTEDDDNEDEDDDGDDNDDDDDDDDDNDNSDEDNEDSDDDDDDDE
With B1 the binding [1] was “binds weakly”, the binding [2] was “binds” and the binding [3] was “binds”. For the same molecule, the binding [5] was “no binding (condition: with 1 M NaCl)” and the binding [4] was “binds weakly”.

Source: paper PMC4938177
